According to the supplement of paper PMC9588766:
Structures can show the parent of a compound that is named as a salt. ± gives the standard deviation of the averaged measurements. Over roughly 2,000 compounds, “cell viability relative to DMSO control (compound alone)” has its median near 0.98; the lowest 2% begin near 0.23. This is one part of the list.

Test system: PDC-DUC18828
Assay: cell viability relative to DMSO control (compound alone) (fraction); PDC-DUC18828 is a patient-derived cholangiocarcinoma cell line; higher = less growth inhibition
Conditions: 1 µM; 72 h
Description: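 Selleck Bioactive library screen in the patient-derived FGFR2-G3BP2 fusion-positive ICC cell line PDC-DUC18828 (500 cells/well). Each compound was tested at 1 uM alone, in triplicate, for 72 h. Viability was read by CellTiter-Glo and normalised to plate DMSO controls.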

Row | Compound | cell viability
1 | Cc1cc(F)c(Nc2ncnc3cc(OCc4ccccc4)ccc23)cc1O | 0.949 ± 0.054
2 | O=c1[nH]c(=O)n([C@H]2C[C@H](O)[C@@H](CO)O2)cc1C(F)(F)F [Trifluridine] | 0.997 ± 0.025
3 | Cn1cncc1[C@@](N)(c1ccc(Cl)cc1)c1ccc2c(c1)c(-c1cccc(Cl)c1)cc(=O)n2C [Tipifarnib] | 0.79 ± 0.032
4 | Cc1cc(C#N)cc(C)c1Oc1nc(Nc2ccc(C#N)cc2)nc(N)c1Br [Etravirine (TMC125)] | 0.935 ± 0.057
5 | NC1=NCC2c3ccccc3Cc3ccccc3N12 (centres undefined) [Epinastine HCl] | 0.989 ± 0.06
6 | NC(=O)N1c2ccccc2CC(=O)c2ccccc21 [Oxcarbazepine] | 1.02 ± 0.06
7 | Oc1nc(-c2ccc(C(F)(F)F)cc2)nc2c1CSCC2 | 0.94 ± 0.017
8 | Cc1nc2ccc(NC(=O)Nc3ccnc4cccnc34)cc2o1 | 0.9552 ± 0.0015
9 | CN(C)c1ccc(-c2nc3ncc(Cl)c(N4CCN(CC(=O)Nc5nccs5)CC4)c3[nH]2)cc1 | 0.946 ± 0.046
10 | O=C1N=C(O)NC1(c1ccccc1)c1ccccc1 [Phenytoin sodium] | 0.942 ± 0.05
11 | O=C1Nc2ccc(I)cc2/C1=C/c1cc(Br)c(O)c(Br)c1 | 0.978 ± 0.022
12 | CN(C)c1cc(NC(=O)CNC(C)(C)C)c(O)c2c1C[C@H]1C[C@H]3[C@H](N(C)C)C(O)=C(C(N)=O)C(=O)[C@@]3(O)C(O)=C1C2=O [Tigecycline] | 1.01 ± 0.061
13 | CCNc1nc(Nc2cc(F)c(C(=O)N3CCOCC3)cc2OC)ncc1C(F)(F)F | 0.915 ± 0.039
14 | COc1cc(NS(=O)(=O)c2ccc(N)cc2)nc(OC)n1 [Sulphadimethoxine] | 1.06 ± 0.035
15 | CC1(C)O[C@@H]2[C@@H](CO[C@@]3(COS(N)(=O)=O)OC(C)(C)O[C@@H]23)O1 [Topiramate] | 1.03 ± 0.026
16 | O=C(c1ccc(F)cc1)N1CCC[C@H](c2nc(-c3ccc(F)cc3)no2)C1 | 1.06 ± 0.064
17 | Cc1ccc(Cl)cc1N(CC(=O)Nc1c(F)cccc1F)S(C)(=O)=O | 0.998 ± 0.033
18 | Cc1ccc2nc(NCCN)c3ncc(C)n3c2c1 | 1.11 ± 0.053
19 | Cc1c(NC(=O)OC[C@@H]2COCCN2)cn2ncnc(Nc3ccc4c(cnn4Cc4cccc(F)c4)c3)c12 | 0.925 ± 0.021
20 | COc1ccc(C[C@H](NC(=O)[C@H](C)NC(=O)CN2CCOCC2)C(=O)N[C@@H](Cc2ccccc2)C(=O)[C@@]2(C)CO2)cc1 | 0.0203 ± 0.0028
21 | CC(C[N+](C)(C)C)OC(N)=O (centres undefined) [Bethanechol chloride] | 0.904 ± 0.077
22 | NS(=O)(=O)Cc1noc2ccccc12 [Zonisamide] | 0.98 ± 0.021
23 | C=CCc1ccc(O)c(-c2cc(CC=C)ccc2O)c1 [Magnolol] | 1.02 ± 0.037
24 | COc1ccc2c(c1)C(=O)N(CCc1ccc(S(=O)(=O)NC(=O)NC3CCCCC3)cc1)C(=O)C2(C)C [Gliquidone] | 0.95 ± 0.071
